Assay results from PubChem BioAssay AID1508621 (National Center for Advancing Translational Sciences (NCATS), 2021).
This list was built around the results that the source calls inconclusive (neither active nor inactive); the mix of calls is not that of the screen. Where the call is inconclusive, the potency comes from a doubtful curve fit. Active and inactive are the calls of the source. The call rests on the fitted dose curve; in most records, active means well fitted inhibition curve with a large enough effect; inconclusive means small, poorly fitted or top-dose-only effect; inactive means no such curve, though single readings can be large or run the other way.

experiment: Confirmatory qHTS for Identification of Small Molecule Inhibitors of Huntingtin Promoter Activity; settings: HEK293 HTT promoter firefly luciferase reporter, 24 h; series mostly up to 57.5 µM; activity change, negative = inhibition: at the top concentration; further: nearly all actives have a fitted effect of over 65% in size;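 on activity change, negative = inhibition: 0% = vehicle control and -100% = zero luminescence signal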
Summary of the method: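 Plated reporter HEK293 cells (24 h) received library compounds at up to 57.5 uM final or 50 uM PTC124, incubated 24 h at 37C; firefly luciferase luminescence was then recorded with Dual-Glo reagent.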
Potency means the concentration at half of the fitted maximal effect; tags describe the fitted curve by direction and shape.

| SMILES | Potency | activity change, negative = inhibition |
| --- | --- | --- |
| COc1ccccc1NC(=O)c1ccc(-c2nc(COc3ccc(C)cc3)c(C)o2)cc1 | inconclusive: 21.3 µM [inhibitor, partial curve] | – |
| Cc1ccccc1C(=O)Nc1sc2c(c1C(=O)O)CCC(C(C)(C)C)C2 (stereo not given) | inconclusive: 0.953 µM [inhibitor, full curve] | – |
| CCOC(=O)C1CCC(CN(Cc2c(Cl)cccc2Cl)S(=O)(=O)c2ccc(Cl)cc2)CC1 (stereo not given) | inconclusive: 37.9 µM [inhibitor, single point] | – |
| COc1ccccc1NC(=O)CN1C(=O)C(C)(C)c2ccccc21 | – | inactive: -21.9% |
| Cc1ccc(-c2ncn(-c3ccc(Nc4nccc(-c5cccc(N6CCOCC6)c5)n4)cc3)n2)cn1 | inconclusive: 20 µM [inhibitor, partial curve, poor fit] | – |
| CCOc1ccc(CCNC(=O)CSCc2nc(-c3cccc(C)c3)oc2C)cc1OCC | inconclusive: 23.9 µM [inhibitor, single point] | – |
| COc1ccc(C)cc1NC(=O)Cn1c(=O)cc(C)c2c(C)nn(C)c21 | inconclusive: 0.675 µM [inhibitor, full curve] | – |
| CCOC(=O)C1=C(CN(C)Cc2ccccc2)NC(=O)NC1c1ccc(OC)cc1 (stereo not given) | inconclusive: 21.3 µM [inhibitor, single point] | – |
| COCCn1c2c([n+](Cc3cnccn3)c1C)C(=O)c1ccccc1C2=O | active: 0.0953 µM | – |
| Cc1nc(-c2ccc(F)cc2)sc1CCNC(=O)c1ccc(C(C)(C)C)cc1 | inconclusive: 26.9 µM [inhibitor, single point] | – |
| CC1=C(C(=O)Nc2ccc(Cl)cc2)C(c2ccccc2C)n2ncc(C(=O)Nc3ccc(C)cc3)c2N1 (stereo not given) | inconclusive: 33.8 µM [inhibitor, partial curve] | – |
| CN(C)c1ccc(C(=C2C=CC(=[N+](C)C)C=C2)c2ccc(N(C)C)cc2)cc1 | active: 3.01 µM | – |
| CCc1ccc(NS(=O)(=O)c2c(C)nc3sc(CC)nn3c2=O)cc1 | inconclusive: 23.9 µM [inhibitor, partial curve, poor fit] | – |
| COc1ccc([C@@H]2CNC(=O)C2)cc1OC1CCCC1 | – | inactive: -7.15% |
| CC(C)(C)c1ccc(C(=O)Nc2ccc3c(c2)CCCN3C(=O)c2cccs2)cc1 | inconclusive: 26.9 µM [inhibitor, partial curve] | – |
| Cc1ccc(S(=O)(=O)NCCc2csc(-c3ccc(Cl)cc3)n2)cc1 | inconclusive: 10.7 µM [inhibitor, partial curve] | – |
| COc1cccc(C(=O)N2c3cc(C)ccc3C(C)(c3ccccc3)CC2(C)C)c1 (stereo not given) | inconclusive: 26.9 µM [inhibitor, single point] | – |
| Cc1ccc(S(=O)(=O)N(CC(=O)NCCc2ccc(Cl)cc2)c2ccccc2C)cc1 | inconclusive: 30.1 µM [inhibitor, partial curve] | – |
| CSc1ccc(CCNC(=O)C2CCCN(S(=O)(=O)N(C)c3ccc(F)cc3)C2)cc1 (stereo not given) | inconclusive: 19 µM [inhibitor, partial curve] | – |
| COc1ccc2sc(N(Cc3cccnc3)C(=O)c3ccco3)nc2c1 | inconclusive: 26.9 µM [inhibitor, partial curve] | – |
